Reference: PMC4336329 (PLoS ONE, 2015)
The whole screen tested about 310,000 compounds, of which about 14,000 (4.5%) showed an effect of 50% or more. Effects have a minus sign here. The list shows a part of the results.

The molecules below were run against human ether-à-go-go-related gene (hERG) potassium channel (human, UniProt Q12809) (assay: primary screen, population patch clamp on CHO cells stably expressing hERG).
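Note: peak tail current of the secondary pulse compared with the same well before compound.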

Sequence of human ether-à-go-go-related gene (hERG) potassium channel (Q12809 whole entry, looked up): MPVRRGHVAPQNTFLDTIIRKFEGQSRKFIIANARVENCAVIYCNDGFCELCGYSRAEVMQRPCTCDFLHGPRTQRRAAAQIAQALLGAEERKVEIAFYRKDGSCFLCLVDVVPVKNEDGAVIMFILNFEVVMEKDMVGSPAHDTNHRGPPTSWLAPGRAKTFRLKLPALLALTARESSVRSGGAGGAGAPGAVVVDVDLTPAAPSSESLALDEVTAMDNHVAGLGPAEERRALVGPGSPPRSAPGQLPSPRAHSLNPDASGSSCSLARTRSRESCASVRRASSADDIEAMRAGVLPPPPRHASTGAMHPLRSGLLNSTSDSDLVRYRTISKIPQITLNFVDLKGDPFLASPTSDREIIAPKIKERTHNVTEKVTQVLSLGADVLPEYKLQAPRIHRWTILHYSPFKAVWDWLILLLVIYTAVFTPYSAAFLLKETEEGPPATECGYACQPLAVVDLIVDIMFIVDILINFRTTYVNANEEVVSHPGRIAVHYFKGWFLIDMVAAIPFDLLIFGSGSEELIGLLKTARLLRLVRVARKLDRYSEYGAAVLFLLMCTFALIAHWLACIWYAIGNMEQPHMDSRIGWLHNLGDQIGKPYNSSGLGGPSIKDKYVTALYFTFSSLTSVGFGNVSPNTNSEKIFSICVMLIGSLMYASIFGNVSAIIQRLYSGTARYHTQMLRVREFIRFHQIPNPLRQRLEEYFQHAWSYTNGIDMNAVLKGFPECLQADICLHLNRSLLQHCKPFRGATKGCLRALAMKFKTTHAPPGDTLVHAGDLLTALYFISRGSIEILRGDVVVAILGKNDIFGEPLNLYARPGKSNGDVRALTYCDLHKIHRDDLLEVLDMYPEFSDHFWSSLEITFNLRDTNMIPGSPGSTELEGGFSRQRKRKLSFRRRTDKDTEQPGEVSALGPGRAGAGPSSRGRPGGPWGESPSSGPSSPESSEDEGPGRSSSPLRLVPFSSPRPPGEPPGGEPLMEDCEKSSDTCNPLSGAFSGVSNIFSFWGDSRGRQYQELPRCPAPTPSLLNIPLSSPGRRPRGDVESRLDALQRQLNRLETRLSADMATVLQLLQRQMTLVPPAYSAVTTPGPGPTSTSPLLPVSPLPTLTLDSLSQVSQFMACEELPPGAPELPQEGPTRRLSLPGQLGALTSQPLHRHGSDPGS

Row | Structure (SMILES) | hERG current change (%, negative = inhibition) at 10uM [%]
1 | CC(C)c1nc(C#N)c(NCCCn2ccnc2)o1 | 18.7
2 | O=[N+]([O-])c1cccc(S(=O)(=O)c2cccc([N+](=O)[O-])c2)c1 | 15
3 | COc1ccc(C)cc1S(=O)(=O)N(CC(N)=O)Cc1ccccc1 | -5.74
4 | CCCC(=O)Nc1sc(C)c(C)c1C(=O)Nc1cccc(C)c1 | -10.2
5 | O=C(C1=C[C@@H](C2CC2)C[C@@H](OCCCCO)O1)N1CCOCC1 | -1.98
6 | COc1ccc(Nc2sc(C(=O)Nc3cccc(Cl)c3)c(N)c2C(=O)Nc2ccccc2OC)cc1 | 2.38
7 | Cc1nn(-c2ccccc2)c(Cl)c1C(=O)N(C)CC(=O)Nc1cccc(F)c1 | -17.1
8 | CCC(C)(C)NC(=O)C(c1ccc(OC)cc1)N(C(=O)CCC(=O)Nc1cc(C)on1)c1ccccc1F (centres unmarked) | 5.7
9 | c1ccc(CNc2cncnc2)cc1 | 8.56
10 | C/C(=N\Nc1ccc(C(=O)c2c(C)cc3ccccn23)cc1[N+](=O)[O-])c1ccc(O)cc1 | -0.737
11 | O=C(c1cc(-c2ccccc2)nc2ccccc12)N1CCN(C2CCS(=O)(=O)C2)CC1 (centres unmarked) | -25
12 | Cc1ccc(-c2cn3c(=S)[nH]nc3s2)cc1 | 13
13 | CSCCC(NS(=O)(=O)c1ccc(C)cc1)C(=O)NC1CCCCC1 (centres unmarked) | -0.287
14 | O=C1Nc2cc(C(=O)N3CCN(c4ccc(F)cc4)CC3)ccc2NC1CSCc1cccc(F)c1 (centres unmarked) | 15.7
15 | O=C(NCC(=O)N1CCN(c2ccccc2F)CC1)c1cccs1 | -6.55
16 | O=C(O)CN1C(c2ccccc2)=Nc2ccc(Br)cc2C1c1ccccc1 (centres unmarked) | 13.9
17 | O=c1c(-n2cncn2)c[nH]n1-c1cccc(Cl)n1 | 17.3
18 | COc1ccc(CN(CC(=O)NC2CCCC2)C(=O)c2ccc(-c3ccccc3)[nH]2)cc1 | -19.9
19 | COC(=O)c1cc(O)c(O)c(O)c1 | 3.4
20 | Cc1ccc(N(C(=O)C(F)(F)F)C(C(=O)NC2CCCCC2)c2cccs2)cc1C (centres unmarked) | 7.36
21 | CCOC(=O)C1=C(c2ccccc2)NC(=O)NC1c1cc(Br)c(O)c(OC)c1 (centres unmarked) | -4.97
22 | CC(C)C(C(=O)Nc1nccs1)c1ccccc1 (centres unmarked) | 4.12

Row | Structure (SMILES) | hERG current change (%, negative = inhibition) at 10uM [%]
23 | CC(=O)NC(CCS(C)(=O)=O)C(=O)Nc1ccc2c(c1)OCCO2 (centres unmarked) | -18.1
24 | CCC(=NCc1ccc(F)cc1)c1c(O)n(C)c(=O)n(C)c1=O | -26.6
25 | O=[N+]([O-])c1ccc2c(c1)nc1n2CCN(CC2CCCO2)C1 (centres unmarked) | -10.9
26 | CC(C)c1ccc(C(=O)Nc2nnc(S(=O)(=O)N3CCOCC3)s2)cc1 | -2.56
27 | CCn1c(SCC(=O)Nc2ccccc2)nc2nc3c(cc2c1=O)COC(C)(C)C3 | -61.8
28 | O=C(Cc1ccc(S(=O)(=O)N2CCOCC2)s1)N1CCN(S(=O)(=O)c2ccc(Cl)cc2)CC1 | -26
29 | O=C(Nc1cccc(Cl)c1)c1cc(S(=O)(=O)NCCc2ccc(Cl)cc2)ccc1F | 8.76
30 | O=C(Nc1ccc(-c2csc(Nc3ccccc3)n2)cc1)c1ccccc1 | 10.6
31 | C[C@H]1CN=C(N(C)C)N1CCCC1CCCC1 | -37.8
32 | O=S(=O)(Cc1ccccc1)Nc1ccc(S(=O)(=O)NCC2CCCO2)cc1 (centres unmarked) | 7.21
33 | O=C(Nc1ccc(S(=O)(=O)NC2=NCCCCC2)cc1)c1ccco1 | 2.7
34 | Cc1cc(N2CCOCC2)n2nc(-c3cccc(F)c3)cc2n1 | 0.119
35 | CC(C)N(C(=O)C(F)(F)F)C(C(=O)NC1CCCCC1)c1ccncc1 (centres unmarked) | -10.1
36 | COc1ccc(S(=O)(=O)Nc2ccc(S(=O)(=O)N3CCCCC3)cc2)cc1OC | -10.2
37 | S=C(NCc1ccc2c(c1)OCO2)NCc1ccco1 | 0.766
38 | CC1CCN(C(=O)CSC2=NS(=O)(=O)c3cc(F)ccc3N2)CC1 | -2.95
39 | COc1cc(Cl)c(S(=O)(=O)NCCCn2ccnc2)cc1Cl | 3.34
40 | CCOC(=O)C1CCCN(C(=O)c2cc3ccccc3oc2=O)C1 (centres unmarked) | 17.8
41 | Cc1ccc(C(=O)NCC(c2ccco2)N2CCCCC2)s1 (centres unmarked) | -42.5
42 | NC(=O)CC(NC(=O)Cc1ccc(Cl)cc1)c1ccc(NCCN2CCOCC2)c([N+](=O)[O-])c1 (centres unmarked) | 19.9
43 | CC(=O)Nc1ccccc1-c1nnc(SCc2ccccc2Cl)[nH]c1=O | 4.86
44 | CC(C)Oc1ccc(C2C(C(=O)c3ccco3)=C(O)C(=O)N2Cc2cccnc2)cc1 (centres unmarked) | 15.8
